Laboratory results published in article PMC8336524, “Yeast Bromodomain Factor 1 and Its Human Homolog TAF1 Play Conserved Roles in Promoting Homologous Recombination” (Advanced Science, 2021).
No constants are given. Whether binding was seen depends on the method and setting. For some of these results: Binding seen in cells or lysates may run through a third protein. Some entries that bind do so weakly or less than the wild type. Sequences can lack the tags named with a protein. Each block holds one molecule with its values, some of them ahead of it.

Sequences of proteins named here, by UniProt entry; tags and fusion partners are left off.
UniProt P22336: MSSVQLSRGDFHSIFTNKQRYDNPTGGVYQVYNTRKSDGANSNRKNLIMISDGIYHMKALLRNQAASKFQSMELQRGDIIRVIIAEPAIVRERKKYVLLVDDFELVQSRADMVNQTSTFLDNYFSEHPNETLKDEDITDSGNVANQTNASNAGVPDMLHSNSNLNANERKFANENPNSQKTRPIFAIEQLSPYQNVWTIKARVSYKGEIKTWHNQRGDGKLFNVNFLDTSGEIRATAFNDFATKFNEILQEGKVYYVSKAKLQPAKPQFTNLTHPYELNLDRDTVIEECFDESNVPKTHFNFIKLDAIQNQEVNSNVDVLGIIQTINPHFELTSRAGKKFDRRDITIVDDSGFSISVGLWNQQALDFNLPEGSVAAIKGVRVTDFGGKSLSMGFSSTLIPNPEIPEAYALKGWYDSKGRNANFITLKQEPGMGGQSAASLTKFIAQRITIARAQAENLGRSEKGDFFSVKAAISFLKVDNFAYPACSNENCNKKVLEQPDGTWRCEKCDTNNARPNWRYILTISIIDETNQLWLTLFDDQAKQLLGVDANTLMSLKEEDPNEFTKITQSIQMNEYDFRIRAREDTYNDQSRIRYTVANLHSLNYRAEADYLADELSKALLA

Columns and labels:
[1] = biological target: T1, GST‐Bdf1 fragment A (residues 149–317) (yeast) (UniProt P35817); test: pull-down; GST or GST fusion proteins immobilized on GSH‐sepharose beads, incubated with His‐tagged proteins at 4 °C for 4 h; wash 20 mM Tris–HCl pH 7.4, 200 mM NaCl, 0.5 mM EDTA; Western blot with anti‐His antibody; both purified
T1 sequence: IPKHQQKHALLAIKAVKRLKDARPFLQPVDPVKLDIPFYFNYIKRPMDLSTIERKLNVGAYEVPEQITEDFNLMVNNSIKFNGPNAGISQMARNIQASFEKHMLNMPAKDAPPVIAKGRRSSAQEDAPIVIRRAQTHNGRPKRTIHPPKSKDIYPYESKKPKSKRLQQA

[2] = biological target: T2, GST‐Bdf1 residues 1–287 (yeast) (UniProt P35817); test: as above
T2 sequence: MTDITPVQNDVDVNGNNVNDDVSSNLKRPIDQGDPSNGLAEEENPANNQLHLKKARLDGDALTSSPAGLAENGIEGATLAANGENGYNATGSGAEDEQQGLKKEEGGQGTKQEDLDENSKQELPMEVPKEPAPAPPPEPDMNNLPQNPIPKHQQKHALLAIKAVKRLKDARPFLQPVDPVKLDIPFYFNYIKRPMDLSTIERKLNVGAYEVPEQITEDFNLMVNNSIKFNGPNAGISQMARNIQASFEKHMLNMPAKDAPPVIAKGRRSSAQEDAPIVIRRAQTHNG

[3] = biological target: T3, GST‐Bdf1 residues 1–491 without fragment A (yeast) (UniProt P35817); test: as above
T3 sequence: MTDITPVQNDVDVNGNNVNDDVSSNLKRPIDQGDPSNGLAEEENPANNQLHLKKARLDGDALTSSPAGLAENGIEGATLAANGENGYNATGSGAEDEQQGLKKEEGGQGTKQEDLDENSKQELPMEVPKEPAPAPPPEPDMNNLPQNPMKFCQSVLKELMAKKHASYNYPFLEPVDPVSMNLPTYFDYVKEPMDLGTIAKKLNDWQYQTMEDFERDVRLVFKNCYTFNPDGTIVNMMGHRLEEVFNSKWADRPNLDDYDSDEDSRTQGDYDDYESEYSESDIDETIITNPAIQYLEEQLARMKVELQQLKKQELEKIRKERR

[4] = biological target: T4, GST‐bdf1‐ΔRB (yeast) (UniProt P35817); test: as above
T4 sequence: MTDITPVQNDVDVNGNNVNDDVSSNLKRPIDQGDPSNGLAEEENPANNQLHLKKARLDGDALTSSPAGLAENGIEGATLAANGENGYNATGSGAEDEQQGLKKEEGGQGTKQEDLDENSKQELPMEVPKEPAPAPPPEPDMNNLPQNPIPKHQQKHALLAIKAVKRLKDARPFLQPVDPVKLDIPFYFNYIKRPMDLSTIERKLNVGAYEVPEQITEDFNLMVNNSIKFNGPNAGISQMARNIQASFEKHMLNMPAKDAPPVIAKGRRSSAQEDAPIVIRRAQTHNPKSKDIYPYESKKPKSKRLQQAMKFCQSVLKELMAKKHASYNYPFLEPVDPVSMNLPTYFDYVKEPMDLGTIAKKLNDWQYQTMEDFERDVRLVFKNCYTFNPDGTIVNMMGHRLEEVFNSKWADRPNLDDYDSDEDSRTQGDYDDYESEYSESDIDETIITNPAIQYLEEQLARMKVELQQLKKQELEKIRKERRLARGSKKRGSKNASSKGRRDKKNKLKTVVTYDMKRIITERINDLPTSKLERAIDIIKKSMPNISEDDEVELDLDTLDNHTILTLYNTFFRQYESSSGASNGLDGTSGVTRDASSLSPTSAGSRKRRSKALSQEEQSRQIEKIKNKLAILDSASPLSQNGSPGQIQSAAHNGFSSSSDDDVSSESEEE

[5] = biological target: T5, GST‐Bdf1 residues 1‐558 without fragment A (yeast) (UniProt P35817); test: as above
T5 sequence: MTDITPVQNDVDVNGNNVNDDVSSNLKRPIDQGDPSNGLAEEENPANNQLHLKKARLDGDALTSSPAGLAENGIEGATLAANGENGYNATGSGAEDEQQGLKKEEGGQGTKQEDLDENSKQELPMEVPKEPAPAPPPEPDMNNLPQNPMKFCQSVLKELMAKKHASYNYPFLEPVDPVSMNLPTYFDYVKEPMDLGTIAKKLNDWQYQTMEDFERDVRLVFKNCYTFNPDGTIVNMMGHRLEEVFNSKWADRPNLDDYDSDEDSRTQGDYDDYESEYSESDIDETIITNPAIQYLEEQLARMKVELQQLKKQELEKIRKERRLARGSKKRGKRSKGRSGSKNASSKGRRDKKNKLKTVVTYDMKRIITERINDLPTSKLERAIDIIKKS

[6] = biological target: T6, GST‐Bdf1 fragment B (residues 419–686) (yeast) (UniProt P35817); test: as above
T6 sequence: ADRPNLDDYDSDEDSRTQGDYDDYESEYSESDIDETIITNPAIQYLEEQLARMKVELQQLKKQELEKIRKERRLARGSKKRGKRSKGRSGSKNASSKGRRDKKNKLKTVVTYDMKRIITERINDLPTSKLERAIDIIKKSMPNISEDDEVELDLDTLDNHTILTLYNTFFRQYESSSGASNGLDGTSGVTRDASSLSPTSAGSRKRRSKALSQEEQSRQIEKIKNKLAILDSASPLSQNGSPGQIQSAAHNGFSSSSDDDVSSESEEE

[7] = biological target: Rfa1‐3xHA (yeast) (UniProt P22336); test: co-IP; yeast lysates, cells with or without MMS (0.1%, 90 min); benzonase 500 U/mL; anti‐HA or anti‐FLAG antibody and protein G‐agarose

binding [1]: binds | binding [2]: no binding | binding [3]: no binding | binding [4]: no binding | binding [5]: binds | binding [6]: binds
Molecule: 6xHis‐Rfa1 (from UniProt P22336 1-621)

binding [7]: binds
B1: Bdf1‐3xFLAG (protein, UniProt P35817 1-686)
chain: MTDITPVQNDVDVNGNNVNDDVSSNLKRPIDQGDPSNGLAEEENPANNQLHLKKARLDGDALTSSPAGLAENGIEGATLAANGENGYNATGSGAEDEQQGLKKEEGGQGTKQEDLDENSKQELPMEVPKEPAPAPPPEPDMNNLPQNPIPKHQQKHALLAIKAVKRLKDARPFLQPVDPVKLDIPFYFNYIKRPMDLSTIERKLNVGAYEVPEQITEDFNLMVNNSIKFNGPNAGISQMARNIQASFEKHMLNMPAKDAPPVIAKGRRSSAQEDAPIVIRRAQTHNGRPKRTIHPPKSKDIYPYESKKPKSKRLQQAMKFCQSVLKELMAKKHASYNYPFLEPVDPVSMNLPTYFDYVKEPMDLGTIAKKLNDWQYQTMEDFERDVRLVFKNCYTFNPDGTIVNMMGHRLEEVFNSKWADRPNLDDYDSDEDSRTQGDYDDYESEYSESDIDETIITNPAIQYLEEQLARMKVELQQLKKQELEKIRKERRLARGSKKRGKRSKGRSGSKNASSKGRRDKKNKLKTVVTYDMKRIITERINDLPTSKLERAIDIIKKSMPNISEDDEVELDLDTLDNHTILTLYNTFFRQYESSSGASNGLDGTSGVTRDASSLSPTSAGSRKRRSKALSQEEQSRQIEKIKNKLAILDSASPLSQNGSPGQIQSAAHNGFSSSSDDDVSSESEEE
